“Also recorded” adds a separate entry of the source.
How the values were obtained:
M2 macrophages = assay: Inhibition of polarization and repolarization of M2 macrophages (TGF-beta1, IL-10 secretion); assay type: cell-based, human; settings: G9.2-17 20 μg/ml
Source text: Whole blood from three healthy human donors was used to isolate CD14+ monocytes. The monocytes were allowed to differentiate to macrophages in X-VIVO-15 media (Lonza) in a 10 cm tissue culture dish for 7 days. The differentiated macrophages were either used directly for assessing inhibition of polarization, or they were cryopreserved and used at a later time for repolarization assays. Prior to use in an assay, the M0 macrophages were phenotyped.
Two different polarization cocktails were used to evaluate macrophage polarization: one with a mixture of IL-4 and IL-13, and a second containing only gal-9. The effect of G9.2-17 on M2 polarization was tested via its direct addition to one of these cocktails, and incubation with macrophages for 48 hours. The effect of G9.2-17 on repolarization of M2 macrophages was tested via addition to the M2-polarized macrophages.
The state of polarization was identified by the measurement of secretion of either IL-10 (repolarization) or TGF-beta1 (inhibition of polarization and repolarization). These factors were quantified in cell culture supernatants using CytoMetric Bead Arrays following the manufacturer's protocol.

[1] = Non-GLP single-dose range-finding intravenous toxicity study in rats; assay type: in vivo
orthotopic KPC models = assay: Orthotopic KPC models, tumor growth and survival
[2] = Once weekly intravenous injection toxicity study in Sprague Dawley rats; assay type: in vivo; settings: IV once weekly for a total of 5 doses, 100 and 300 mg/kg
Protocol: The objective of this study was to evaluate potential toxicity of G9.2-17, an IgG4 human monoclonal antibody directed against galectin-9 at different doses, when administered by intravenous injection to Sprague Dawley Rats once weekly for 4 consecutive weeks followed by a 3-week post dose recovery period. In addition, the toxicokinetic characteristics of G9.2-17 were determined.
One hundred eighty-six animals (Sprague Dawley rats) were assigned to treatment groups randomly by body weight. Control Article/Vehicle, Formulation Buffer for Test Article, and test article, G9.2-17, were administered via a single IV injection in a tail vein at dose levels of 0, 100, and 300 mg/kg once on Days 1, 8, 15, 22, and 29. […]
Clinical observations were performed once daily prior to room cleaning in the morning, beginning on the second day of acclimation. […] The average gram (g)/animal/day was calculated from the weekly food consumption. […] Functional Observation Battery (FOB) observations were recorded for SSB animals approximately 24 hours post dose administrations on Days 1, 35 and 49. […]
Parameters assessed during the In-life examinations of the study included clinical observations, food consumption, body weights, functional observational battery. […] At each necropsy, gross observations and organ weights were recorded, and tissues were collected for microscopic examination.

[3] = Once weekly intravenous infusion toxicity study for 5 weeks in cynomolgus monkeys; assay type: in vivo; settings: once weekly IV infusion of 100 and 300 mg/kg for 5 weeks
Protocol: Males and females were randomized separately.
Electrocardiographic examinations were performed on all animals.
(§1) Bone marrow smears were collected and preserved.
Soluble galectin-9 was evaluated as follows.
Soluble galectin-9 samples were processed as follows.

[4] = Non-GLP single-dose range-finding intravenous infusion toxicity study in cynomolgus monkeys; assay type: in vivo
Source text: The animals were placed in sling restraints during dosing.
as §1
Formalin was infused into the lung via the trachea.
Paired organs were weighed together.

B1: G9.2-17: anti-Galectin-9 fully human antibody, VH SEQ ID NO:7, VL SEQ ID NO:8; used as IgG4 (heavy chain SEQ ID NO:19, light chain SEQ ID NO:15) (antibody)
heavy: EVQLVESGGGLVQPGGSLRLSCAASGFTVSSSSIHWVRQAPGKGLEWVAYISSSSGYTYYADSVKGRFTISADTSKNTAYLQMNSLRAEDTAVYYCARYWSYPSWWPYRGMDYWGQGTLVTVSSASTKGPSVFPLAPCSRSTSESTAALGCLVKDYFPEPVTVSWNSGALTSGVHTFPAVLQSSGLYSLSSVVTVPSSSLGTKTYTCNVDHKPSNTKVDKRV[sequence of human IgG4 Fc with S228P L445P (EU numbers) not given]
light: DIQMTQSPSSLSASVGDRVTITCRASQSVSSAVAWYQQKPGKAPKLLIYSASSLYSGVPSRFSGSRSGTDFTLTISSLQPEDFATYYCQQSSTDPITFGQGTKVEIKRTVAAPSVFIFPPSDEQLKSGTASVVCLLNNFYPREAKVQWKVDNALQSGNSQESVTEQDSKDSTYSLSSTLTLSKADYEKHKVYACEVTHQGLSSPVTKSFNRGEC
- TGF-beta1 secretion (M2 macrophages; donor macrophages with IL-4/IL-13 or gal-9 polarization cocktail, vs isotype control or untreated): abolished the IL-4/IL-13-dependent increase of TGF-β1 secretion; also recorded: potently inhibit
- IL-10 secretion (M2 macrophages; repolarization of cryopreserved macrophages, IL-4/IL-13 or Gal-9 cocktail, vs untreated and IgG4 isotype): reduction of secreted IL-10; also recorded: potently inhibit
- tolerability ([1]; single intravenous administration of 10, 30, and 70 mg/kg): tolerated with no adverse findings
- NOEL ([1]; single intravenous bolus, male rats, 10, 30, 70 mg/kg): 70 mg/kg
- extended the survival of KPC animals (orthotopic KPC models; KPC animals): more than double
- halts pancreatic tumor growth (orthotopic KPC models; orthotopic KPC models): 50%
- tolerability [2]: generally well tolerated
- tolerability [3]: tolerated with no adverse findings
- No-observed-Adverse-Effect-Level (NOAEL) ([4]; single 30-minute IV infusion, 30, 100, 200 mg/kg, highest dose level evaluated): 200 mg/kg
- tolerability ([4]; single intravenous infusion of 30, 100, and 200 mg/kg): tolerated with no adverse findings

From patent publication US20240043543A1, “ANTI-GALECTIN-9 ANTIBODIES AND THERAPEUTIC USES THEREOF” (New York University, priority 2020, published 2024)
